Results taken from PubChem BioAssay (NCI).
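Compound exposure: 48 hours, 5 concentrations, 96-well plates. GI50: concentration for 50% inhibition of growth.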 A number of entries come with more than one value. This is not the full list of results. The source may hold further records. For some assays here: Records of one sample usually come from different ranges of test concentrations, not given here; some values may only mark the edge of a range. Marks in square brackets tell the records apart. Letters count within one entry. For some assays here: The records of an entry are repeated measurements (runs, samples, wells, individuals or studies).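 TGI is the concentration that stops growth completely.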

Key:
Assay in all cases: inhibition of tumour cell growth, NCI panel, 48 h
OVCAR-8 ovarian = tested on: OVCAR-8 ovarian
SR leukemia = tested on: SR leukemia
SW-620 colon = tested on: SW-620 colon
NCI-H460 lung = tested on: NCI-H460 lung
SF-539 CNS = tested on: SF-539 CNS
SF-268 CNS = tested on: SF-268 CNS
NCI-H226 lung = tested on: NCI-H226 lung
RXF 393 renal = tested on: RXF 393 renal
EKVX NSCLC = tested on: EKVX NSCLC
CCRF-CEM leukemia = tested on: CCRF-CEM leukemia
MOLT-4 leukemia = tested on: MOLT-4 leukemia
LOX IMVI melanoma = tested on: LOX IMVI melanoma
UO-31 renal = tested on: UO-31 renal
K-562 leukemia = tested on: K-562 leukemia
RPMI-8226 leukemia = tested on: RPMI-8226 leukemia
CAKI-1 renal = tested on: CAKI-1 renal
OVCAR-4 ovarian = tested on: OVCAR-4 ovarian
OVCAR-3 ovarian = tested on: OVCAR-3 ovarian
MALME-3M melanoma = tested on: MALME-3M melanoma
HCT-116 colon = tested on: HCT-116 colon
UACC-257 melanoma = tested on: UACC-257 melanoma
SK-MEL-28 melanoma = tested on: SK-MEL-28 melanoma
HT29 colon = tested on: HT29 colon
HCC-2998 colon = tested on: HCC-2998 colon
U251 CNS = tested on: U251 CNS
NCI/ADR-RES ovarian = tested on: NCI/ADR-RES ovarian

Question: Which results are given for CN(C)C1CCN(C(=O)c2ccc(NC(=O)Nc3ccc(-c4nc(N5CCOCC5)nc(N5CCOCC5)n4)cc3)cc2)CC1?
Answer: TGI (OVCAR-8 ovarian): 578 nM [sample A, 1 test] and 1.26 µM, 7.59 µM [sample B, 1 test]; TGI (SR leukemia): > 100 µM [sample A, 1 test] and 2.5 µM [sample B, 1 test]; TGI (SW-620 colon): > 100 µM [sample A, mean of 2 tests] and 2.5 µM, 4.19 µM [sample B, 1 test]; TGI (NCI-H460 lung): > 100 µM [sample A, mean of 2 tests] and 2.5 µM, 3.32 µM [sample B, 1 test]; TGI (SF-539 CNS): 62.8 nM [sample A, mean of 2 tests] and 95.7 nM, 666 nM [sample B, 1 test]; TGI (SF-268 CNS): > 37.1 µM [sample A, mean of 2 tests] and 2.5 µM, 4.79 µM [sample B, 1 test]; GI50 (NCI-H226 lung): 18.5 nM [sample A, mean of 2 tests] and 149 nM, 12.1 nM [sample B, 1 test]; TGI (RXF 393 renal): 230 nM [sample A, mean of 2 tests] and 618 nM, 2.52 µM [sample B, 1 test]; TGI (EKVX NSCLC): 166 nM [sample A, mean of 2 tests] and 2.5 µM, 1.24 µM [sample B, 1 test]; TGI (CCRF-CEM leukemia): > 100 µM [sample A, mean of 2 tests] and 2.5 µM, > 10 µM [sample B, 1 test]; TGI (MOLT-4 leukemia): > 100 µM [sample A, mean of 2 tests] and 2.5 µM, > 10 µM [sample B, 1 test]; TGI (LOX IMVI melanoma): > 100 µM [sample A, 1 test] and 403 nM, 1.15 µM [sample B, 1 test]; GI50 (UO-31 renal): 2.32 µM [sample A, 1 test] and 908 nM, 169 nM [sample B, 1 test]; TGI (UO-31 renal): > 100 µM [sample A, 1 test] and 2.5 µM, 6.16 µM [sample B, 1 test]; TGI (K-562 leukemia): > 100 µM [sample A, 1 test] and 2.5 µM, > 10 µM [sample B, 1 test]; TGI (RPMI-8226 leukemia): > 100 µM [sample A, 1 test] and 2.5 µM, 2.16 µM [sample B, 1 test]; TGI (CAKI-1 renal): > 100 µM [sample A, mean of 2 tests] and 2.5 µM, 4.73 µM [sample B, 1 test]; TGI (OVCAR-4 ovarian): 27.7 nM [sample A, 1 test] and 155 nM, 322 nM [sample B, 1 test]

Question: Nc1cc(-c2cccc(OC(F)(F)F)c2)nc2ccc(N3CCCC3)cc12 was tested. Which TGI (OVCAR-3 ovarian) did it give?
Answer: The TGI was 3.94 µM [sample A, mean of 2 tests] and > 41.2 µM [sample B, mean of 2 tests] and > 60.2 µM [sample C, mean of 2 tests].

Question: And the TGI (MALME-3M melanoma)?
Answer: The TGI was 3.32 µM [sample A, 1 test] and 21.6 µM [sample B, mean of 2 tests] and > 100 µM [sample C, 1 test].

Question: What about the TGI (HCT-116 colon) of the same compound?
Answer: Its TGI is 1.99 µM [sample A, mean of 2 tests] and > 40.5 µM [sample B, mean of 2 tests] and 24.8 µM [sample C, mean of 2 tests].

Question: What about the GI50 (UACC-257 melanoma) of the same compound?
Answer: The GI50 was 1.46 µM [sample A, mean of 2 tests] and 11.4 µM [sample B, mean of 2 tests] and > 52.3 µM [sample C, mean of 2 tests].

Question: And the TGI (UACC-257 melanoma)?
Answer: Its TGI is 4.41 µM [sample A, mean of 2 tests] and > 67.7 µM [sample B, mean of 2 tests] and > 100 µM [sample C, mean of 2 tests].

Question: And the TGI (SK-MEL-28 melanoma)?
Answer: The TGI was 3.76 µM [sample A, mean of 2 tests] and 21.6 µM [sample B, 1 test] and 50.8 µM [sample C, 1 test].

Question: What about the TGI (SR leukemia) of the same compound?
Answer: The TGI was > 100 µM [sample A, 1 test] and 1.16 µM [sample B, 1 test] and 1.23 µM [sample C, mean of 2 tests].

Question: What about the TGI (HT29 colon) of the same compound?
Answer: The TGI was 4.11 µM [sample A, mean of 2 tests] and > 100 µM [sample B, 1 test].

Question: And the TGI (HCC-2998 colon)?
Answer: The TGI was 1.67 µM [sample A, mean of 2 tests] and 2.38 µM [sample B, mean of 2 tests] and > 100 µM [sample C, mean of 2 tests].

Question: What about the TGI (MOLT-4 leukemia) of the same compound?
Answer: Its TGI is 5.79 µM [sample A, mean of 2 tests] and > 100 µM [sample B, mean of 2 tests] and 25.6 µM [sample C, mean of 2 tests].

Question: And the TGI (LOX IMVI melanoma)?
Answer: The TGI was 1.86 µM [sample A, mean of 2 tests] and > 34.4 µM [sample B, mean of 2 tests] and > 100 µM [sample C, mean of 2 tests].

Question: What about the TGI (K-562 leukemia) of the same compound?
Answer: The TGI was 3.47 µM [sample A, mean of 2 tests] and > 100 µM [sample B, mean of 2 tests] and 12 µM [sample C, mean of 2 tests].

Question: And the TGI (U251 CNS)?
Answer: Its TGI is 5.79 µM [sample A, mean of 2 tests] and > 100 µM [sample B, mean of 2 tests] and > 100 µM [sample C, mean of 2 tests].

Question: O=[N+]([O-])c1ccc(N=Nc2c(O)ccc3ccccc23)cc1 was tested. Which GI50 (MALME-3M melanoma) did it give?
Answer: The GI50 was 42.8 µM [sample A, 1 test] and 18.6 nM [sample B, 1 test].

Question: What about the TGI (MALME-3M melanoma) of the same compound?
Answer: The TGI was > 100 µM [sample A, 1 test] and 49 nM [sample B, 1 test].

Question: What about the GI50 (NCI/ADR-RES ovarian) of the same compound?
Answer: The GI50 was 89.7 µM [sample A, 1 test] and 159 nM [sample B, 1 test].

Question: What about the TGI (NCI/ADR-RES ovarian) of the same compound?
Answer: Its TGI is > 100 µM [sample A, 1 test] and 647 nM [sample B, 1 test].
